Consider 76 variants from a collection of fitness landscapes (doi:10.1016/j.celrep.2020.107928).

B1: Caulobacter ParB omega fusion; a variant is named by its letters at X, in order, B8GW30 (parent)
chain: MESVVVGEPGMSEGRRGLGRGLSALLGEVDAAPAQAPGEQLGGSREAPIEILQRNPDQPRRTFREEDLEDLSNSIREKGVLQPILVRPSPDTAGEYQIVAGERAWRAAQRAGLKTVPIMVRELDDLAVLEIGIIENVQRADLNVLEEALSYKVLMEKFERTQENIAQTIGKSXSHVANXMRLLXLPDEVQSYLVSGELTAXHARAIAAAADPVALAKQIIEGGLSVRETEALARKAPNLSAGKSKGGRPPRVKDTDTQALESDLSSVLGLDVSIDHRGSTGTLTITYATLEQLDDLCNRLTRGI

Over roughly 81,000 sequences, “one-hybrid fitness for binding NBS DNA” has its median near -0.1; the highest 2% begin near 0.36. The list shows a part of the results.

The variants in this test derive from B1. The test is described as follows: one-hybrid fitness for binding NBS DNA (the Noc-binding site; scaled: cognate 1, non-cognate 0); higher = stronger binding. To be noted: with NBS DNA site. In outline: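 The reporter was HIS3, with the binding site 19 bp from the promoter, in E. coli USO used for bacterial one-hybrid selection of Caulobacter ParB libraries with four specificity codons randomised. Growth was on M9 lacking histidine, with 0.1 mM IPTG and 5 mM 3-AT, for 48 hours at 37°C. Illumina sequencing covered plasmids before and after selection; three replicate libraries were pooled and variants with under 10 reads dropped. A fitness score is the log change in variant-to-wild-type read ratio, rescaled to the cognate and non-cognate references.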
YHCF: the “one-hybrid fitness for binding NBS DNA” value is at most 0.2.
As for TGAY, the figure is at most 0.2; as for VNVT, at most 0.2; as for NVAD, at most 0.2.
Consider RMKK, for which the “one-hybrid fitness for binding NBS DNA” value came out at 0.253.
In the case of PYNL, the “one-hybrid fitness for binding NBS DNA” value is at most 0.2.
On to RMTY, for which the “one-hybrid fitness for binding NBS DNA” value is at most 0.2.
AMAF: the “one-hybrid fitness for binding NBS DNA” value is at most 0.2.
For the variant RCGW, the “one-hybrid fitness for binding NBS DNA” value was at most 0.2.
As for QLLV, the figure is at most 0.2; as for HGIT, at most 0.2.
As for TTDH, the figure is at most 0.2; as for ASTM, at most 0.2; as for QKEC, at most 0.2.
On to DPAN, for which the “one-hybrid fitness for binding NBS DNA” value is at most 0.2.
On to VQNR, for which the “one-hybrid fitness for binding NBS DNA” value is at most 0.2.
As for TGQC, the figure is at most 0.2.
As for CPAI, the figure is at most 0.2.
As for FTWF, the “one-hybrid fitness for binding NBS DNA” value was at most 0.2.
As for YRPS, the figure is at most 0.2; as for LMPG, at most 0.2.
As for SRHK, the figure is at most 0.2.
As for QGLL, the “one-hybrid fitness for binding NBS DNA” value is at most 0.2.
FAGC: the “one-hybrid fitness for binding NBS DNA” value was at most 0.2.
As for NAKN, the figure is at most 0.2; as for EQLI, at most 0.2.
As for GRQC, the figure is at most 0.2; as for SEVC, at most 0.2.
Turning to FRLF, the “one-hybrid fitness for binding NBS DNA” value was at most 0.2.
As for HKQS, the figure is at most 0.2; as for NIRW, at most 0.2.
As for MSEG, the figure is at most 0.2; as for SVTV, at most 0.2; as for FVLT, at most 0.2.
As for PIHS, the figure is at most 0.2.
For the variant DPPM, the “one-hybrid fitness for binding NBS DNA” value was at most 0.2.
As for YLHG, the figure is at most 0.2; as for TKQT, at most 0.2.
Regarding IHKE, the “one-hybrid fitness for binding NBS DNA” value was at most 0.2.
Consider SVIG, for which the “one-hybrid fitness for binding NBS DNA” value was at most 0.2.
As to RQPM, the “one-hybrid fitness for binding NBS DNA” value was at most 0.2.
In the case of VLHC, the “one-hybrid fitness for binding NBS DNA” value was at most 0.2.
As for QRWR, the figure is 0.796.
As for GDQG, the figure is at most 0.2; as for SSTP, at most 0.2; as for KQPM, at most 0.2.
PSLT: the “one-hybrid fitness for binding NBS DNA” value was at most 0.2.
Take NPVN: the “one-hybrid fitness for binding NBS DNA” value is at most 0.2.
On to PGTL, for which the “one-hybrid fitness for binding NBS DNA” value is at most 0.2.
In the case of MMNG, the “one-hybrid fitness for binding NBS DNA” value was at most 0.2.
Consider YDLT, for which the “one-hybrid fitness for binding NBS DNA” value is at most 0.2.
HCDC: the “one-hybrid fitness for binding NBS DNA” value was at most 0.2.
Turning to TRTR, the “one-hybrid fitness for binding NBS DNA” value is 0.359.
As for QSTN, the figure is at most 0.2; as for QPQV, at most 0.2.
For SRGM, the “one-hybrid fitness for binding NBS DNA” value was at most 0.2.
As for RIEA, the figure is at most 0.2; as for LTAG, at most 0.2; as for ERCR, at most 0.2.
As for EPAR, the figure is at most 0.2; as for HGNA, at most 0.2; as for RYKS, 0.57.
With QVNN, the “one-hybrid fitness for binding NBS DNA” value was at most 0.2.
As for LFNG, the figure is at most 0.2; as for RWHL, at most 0.2.
As for SPAS, the figure is at most 0.2.
As for IVDV, the figure is at most 0.2; as for QLSC, at most 0.2; as for HDRA, at most 0.2.
Regarding IDRS, the “one-hybrid fitness for binding NBS DNA” value was at most 0.2.
As for LVTS, the figure is at most 0.2; as for AGRT, at most 0.2; as for PGTW, at most 0.2.
In the case of EMRG, the “one-hybrid fitness for binding NBS DNA” value was at most 0.2.
As for DVYS, the figure is at most 0.2.
As for HVQY, the “one-hybrid fitness for binding NBS DNA” value is at most 0.2.
